# Laboratory results published in PubChem BioAssay AID588591 (National Center for Advancing Translational Sciences (NCATS), 2011).
# Out of some 390,000 compounds screened, about 4,700 (1.2%) were called active. This list was built around the results that the source calls inconclusive (neither active nor inactive); the mix of calls is not that of the screen. Calls come from the whole dose curve; as a rule, active = well fitted inhibition curve with a large enough effect; inconclusive = small, poorly fitted or top-dose-only effect, or another doubt; inactive = no such curve, though single readings can be large or run the other way. Potencies beside an inconclusive call are fits to weak or partial responses and may not hold up.
# Target: DNA polymerase eta (Homo sapiens) (UniProt Q9Y253)
# UniProt Q9Y253, sequence (Q9Y253 whole entry, looked up): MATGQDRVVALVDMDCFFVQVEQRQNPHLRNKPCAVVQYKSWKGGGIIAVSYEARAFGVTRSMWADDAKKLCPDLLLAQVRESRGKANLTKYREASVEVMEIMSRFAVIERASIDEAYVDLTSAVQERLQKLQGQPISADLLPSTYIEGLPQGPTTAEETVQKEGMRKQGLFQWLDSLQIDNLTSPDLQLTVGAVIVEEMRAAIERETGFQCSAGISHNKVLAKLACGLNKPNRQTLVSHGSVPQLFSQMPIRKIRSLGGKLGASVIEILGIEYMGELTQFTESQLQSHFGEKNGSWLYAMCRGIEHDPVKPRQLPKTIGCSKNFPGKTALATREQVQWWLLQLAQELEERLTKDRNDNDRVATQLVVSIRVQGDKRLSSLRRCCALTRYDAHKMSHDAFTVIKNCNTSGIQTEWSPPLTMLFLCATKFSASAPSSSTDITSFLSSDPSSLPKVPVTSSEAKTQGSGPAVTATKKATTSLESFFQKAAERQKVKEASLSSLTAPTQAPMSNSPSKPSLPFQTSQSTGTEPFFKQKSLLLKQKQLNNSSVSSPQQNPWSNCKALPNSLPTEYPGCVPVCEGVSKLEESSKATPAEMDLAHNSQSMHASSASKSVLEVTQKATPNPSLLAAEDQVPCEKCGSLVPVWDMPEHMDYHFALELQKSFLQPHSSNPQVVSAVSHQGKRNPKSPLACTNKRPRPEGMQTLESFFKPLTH
# Assay: qHTS for Inhibitors of Polymerase Eta
# Settings: recombinant Pol eta, fluorescent DNA replication assay; series mostly up to 114 µM; activity change, negative = inhibition: at the top concentration
# Summary of the method: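 Pol eta (10 nM) was preincubated with compounds for 15 min at room temperature, after which fluorescent replication substrate (50 nM final) was added to start the reaction. Fluorescence was read kinetically at 0 and 10 min.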
# % is set by controls: 0 for no effect and ±100 for the full control effect; potency is the fitted concentration of half-maximal effect; tags give direction and shape of the fitted curve.
Compound,Potency,"activity change, negative = inhibition"
CC(C)CC(=O)Nc1ccc(C(=O)COC(=O)CN2C(=O)NC3(CCCCC3C)C2=O)cc1 (configuration not stated),"inconclusive: 25.1 µM [inhibitor, partial curve]",
O=Nc1c(O)ccc2cc(S(=O)(=O)O)ccc12,active: 14.1 µM,
COc1ccc(/C=N/Nc2ncnc3c2[nH]c2ccc(C)cc23)c(OC)c1OC,active: 25.1 µM,
COc1ccc2c(CC(=O)N3CCN(S(=O)(=O)c4cccs4)CC3)coc2c1,,inactive: 2.87%
Cc1cc(NC(=O)CCC(=O)N(c2ccccc2)C(C(=O)NC(C)(C)C)c2ccccc2Cl)no1 (configuration not stated),"inconclusive: 79.4 µM [inhibitor, partial curve, poor fit]",
COc1ccc(-c2cc(-c3ccco3)[nH]c(=O)c2C#N)cc1OC,active: 56.2 µM,
O=C(O)/C=C/c1cn(-c2ccccc2)nc1-c1ccc(-c2ccc([N+](=O)[O-])cc2)o1,active: 31.6 µM,
Cc1cc(SCC(=O)NCCN2C(=O)CSC2=O)nc2ccccc12,"inconclusive: 3.16 µM [inhibitor, full curve, poor fit]",
COc1ccc(NC(=O)CN(c2ccccc2)S(=O)(=O)N(C)C)cc1OC,active: 44.7 µM,
O=C(O)COc1ccc(/C=N/n2cnc3scc(-c4cccs4)c3c2=O)cc1,"inconclusive: 28.2 µM [inhibitor, partial curve, poor fit]",
COc1ccc(Cn2cc3c(-c4ccc(F)cc4)nnc-3c3cc(OC)c(OC)cc32)cc1,,inactive: -14.2%
S=C(N/N=C/c1cccs1)NC1CC2CCC1C2 (configuration not stated),"inconclusive: 79.4 µM [inhibitor, partial curve, poor fit]",
CC(=O)Nc1cccc(-n2nnc(SCC(=O)Nc3ccc(F)c(Cl)c3)n2)c1,"inconclusive: 70.8 µM [inhibitor, partial curve]",
O=S(=O)(NCCC1=CCCCC1)c1ccc(Br)cc1,"inconclusive: 79.4 µM [inhibitor, partial curve, poor fit]",
CCC(C(=O)Nc1ccc(C)c(C)c1)n1c(=O)c(C(F)(F)F)nc2ccccc21 (configuration not stated),"inconclusive: 89.1 µM [inhibitor, partial curve, poor fit]",
CCOc1ccc(NC(=S)N/N=C(\C)Cc2ccc(OC)cc2)cc1,"inconclusive: 50.1 µM [inhibitor, partial curve, poor fit]",
C(=C\c1ccccc1)/CSc1nnc(-c2ccccn2)n1Cc1ccco1,"inconclusive: 35.5 µM [inhibitor, partial curve, poor fit]",
O=C(O)/C(=C\c1ccc(F)cc1)c1ccc(-c2ccccc2)cc1,,inactive: -11.2%
Cc1ccc(C)c(Nc2cc(C(=O)NC3CCCC3)c3ccccc3n2)c1,"inconclusive: 89.1 µM [inhibitor, partial curve, poor fit]",
CCc1ccc2[nH]c(=O)c(C(c3nnnn3CCOC)N3CCN(c4ccccc4)CC3)cc2c1 (configuration not stated),"inconclusive: 89.1 µM [inhibitor, partial curve, poor fit]",
Cc1nc2nc(-c3ccc(Cl)cc3)[nH]n2c(=O)c1Cc1ccccc1,"inconclusive: 25.1 µM [inhibitor, single point]",

Compound,Potency,"activity change, negative = inhibition"
CCCn1nnc(NC(=S)NC(=O)/C=C/c2ccco2)n1,"inconclusive: 39.8 µM [inhibitor, partial curve]",
CCOC(=O)c1cccc(NC(=O)CN(c2ccc(C)cc2)S(=O)(=O)c2c(C)n[nH]c2C)c1,"inconclusive: 50.1 µM [inhibitor, partial curve, poor fit]",
Cc1ccc(C)c(NC(=O)C(Sc2nnc(-c3cccs3)o2)c2ccccc2)c1 (configuration not stated),"inconclusive: 79.4 µM [inhibitor, partial curve, poor fit]",
CCOc1ccc(S(=O)(=O)Nc2ccc(C(=O)NN)cc2)cc1,,inactive: -13%
COCCCNC(=O)c1ccc(-c2nc(CS(=O)(=O)c3ccc(C)cc3)c(C)o2)cc1,,inactive: -6.62%
COc1ccc(Cl)cc1S(=O)(=O)NCc1ccc2c(c1)CCN2C(=O)c1cccc(C)c1,"inconclusive: 79.4 µM [inhibitor, partial curve, poor fit]",
O=C(O)C1CSC(c2ccco2)N1 (configuration not stated),active: 10 µM,
CC1(C)CC2(CC(c3ccccc3)Oc3cc(O)ccc32)NC(=S)N1 (configuration not stated),"inconclusive: 89.1 µM [inhibitor, partial curve, poor fit]",
CCN(CC(=O)Nc1ccc(OC)cc1)C(=O)c1ccc([N+](=O)[O-])cc1,,inactive: 3.6%
Cc1ccc(Cn2c(C)c3cnn(CC(=O)NCc4ccccc4)c(=O)c3c2C)cc1,"inconclusive: 100 µM [inhibitor, single point]",
O=C(O)COc1ccccc1/C=N/Nc1ccc(S(=O)(=O)Nc2ccc(Cl)cc2)cc1[N+](=O)[O-],active: 28.2 µM,
CCN(CC)c1ccc(NC(=O)c2cnn(-c3ccccc3)c2-n2cccc2)c(C)c1,,inactive: -9.3%
COc1ccc(-n2ncc3c(=O)n(CC(=O)Nc4ccc(S(=O)(=O)N5CCOCC5)cc4)cnc32)cc1,"inconclusive: 79.4 µM [inhibitor, partial curve, poor fit]",
Cc1cc(C(=O)OCC(=O)c2ccc(Cl)c([N+](=O)[O-])c2)c2cccc(C)c2n1,"inconclusive: 6.31 µM [inhibitor, full curve, poor fit]",
COc1ccccc1C(CNC(=O)c1ccc(NS(=O)(=O)c2ccc(C(C)=O)cc2)cc1)N1CCCC1 (configuration not stated),active: 15.8 µM,
O=C1NC(=S)S/C1=C\c1ccc2ccccc2c1,,inactive: 6.6%
O=C(Nc1ccccc1Cc1ccccc1)c1ccccc1NS(=O)(=O)c1ccc(Cl)s1,active: 79.4 µM,
O=C(N/N=C/c1cccc(F)c1)c1cc(-c2ccco2)nc2ccccc12,active: 2.24 µM,
COc1cc2cc3c(N)c(C(=O)Nc4sc(C)c(C)c4C#N)sc3nc2cc1OC,active: 28.2 µM,
c1coc(Cn2c(-c3ccco3)nc3ccccc32)c1,"inconclusive: 31.6 µM [inhibitor, partial curve, poor fit]",
Cc1ccc(NC(=S)Nc2ccc(OC(F)F)c(Cl)c2)cc1F,"inconclusive: 79.4 µM [inhibitor, partial curve, poor fit]",
